# In PubChem BioAssay (NCI):
#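 These data come from cells grown in 96-well plates and exposed to compound for 48 hours at five concentrations. GI50 = concentration required for 50% inhibition of growth. TGI marks complete inhibition of growth.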
# System: NCI-H322M lung
# Assay: NCI-60 cell line screen, 48 h
SMILES,TGI,GI50
COc1ccc2c3c([nH]c2c1[N+](=O)[O-])C(C)N(C)CC3 (configuration not stated),> 100 µM,–
COc1c(C(=O)/C=C/c2ccccc2)c(O)cc2occc12,26.7 µM,13.6 µM
O=C1c2ccccc2C(=O)N1CCCCNOCCCN1C(=O)c2ccccc2C1=O,> 100 µM,–
CCOC(=O)C(=O)Nc1ccccc1CC,> 100 µM,–
CCCCC(CC)COC(=O)C[N+](C)(C)CCOC(c1ccccc1)c1ccccc1 (configuration not stated),24.9 µM,11 µM
COc1cc(OC)c(C(=O)/C=C/c2cccc(C(F)(F)F)c2)c(OC)c1,5.18 µM,1.49 µM
Clc1cc(Cl)c2ns[s+]c2c1Cl,> 100 µM,–
O=C1/C(=C(/c2ccccc2)N2CCOCC2)Cc2ccccc21,19.6 µM,6.57 µM
O=C(NC(Cc1ccccc1)(Cc1ccc(O)cn1)C(=O)O)c1ccccc1 (configuration not stated),> 100 µM,–
CO/C=C(/C(=O)OC)c1ccccc1COc1cccc(C(F)(F)F)c1,65.7 µM,–
COc1cc2[nH]c3c(c2cc1OC)CCN[C@]31CC[C@]2(CC3c4c(cc(OC)c(O)c42)CCN3C)C[C@H]1OC (some centres not stated),> 100 µM,–
O=C(Nc1nnc(-c2ccc(Cl)cc2)o1)C(SC(=S)N1CCOCC1)c1ccccc1 (configuration not stated),62.3 µM,–
C=CCCC1(CC(Sc2ccccc2)P(=O)(c2ccccc2)c2ccccc2)OCCO1 (configuration not stated),> 10 µM,–
CCCCCCCCCCCC(=O)OCC(C[As](=O)(O)O)OC(=O)CCCCCCCCCCC (configuration not stated),33.8 µM,–
Nc1ccccc1C#C/C=C\C#Cc1ccccc1N,54.1 µM,19.1 µM
Cc1cc(N(CCC#N)CCC#N)ccc1/C=C(\NC(=O)/C=C/c1ccccc1)C(N)=O,> 100 µM,–
COC1=C(OC)C(=O)C(Cc2c(C)nc3sccn23)=C(C)C1=O,36.2 µM,–
Cc1cc(C(=O)Nc2ccc3cc(CN4CCOCC4)ccc3n2)c(C)n1-c1ccccc1,> 100 µM,19.6 µM
Cn1cc(C2(C)CC(C)(C)c3c2n(C)c2ccccc32)c2ccccc21 (configuration not stated),> 100 µM,–
CCOC(=O)C1C(=O)CC1(C)C (configuration not stated),> 10 µM,–
CN(C(=O)Cc1cccc(N=C=S)c1)[C@H]1CCCC[C@@H]1N1CCCC1,32.1 µM,–
O=C(/C=C/c1ccc2ccccc2c1)NCc1ccc(C(=O)NCCc2ccccc2)cc1,> 100 µM,–
COc1ccc(CN2CC(C)(C)C2=O)c(OC)c1,> 100 µM,–
CCCCNC1CCCCC[C@H]1O (some centres not stated),> 100 µM,–
COc1cc(Br)cc2cc(-c3cn4c(n3)sc3ccccc34)c(=O)oc12,58.7 µM,–

SMILES,TGI,GI50
COc1ccc(C(=O)c2cc(OC)c(OC)c(OC)c2)cc1/C=C/C(=O)c1ccc(F)cc1,40 µM,15.4 µM
CC(CC[C@@]1(C)C(=O)CCC2O[C@]21C)[C@H]1C[C@@H](c2ccoc2)OC1=O (some centres not stated),> 100 µM,–
N#Cc1[nH]c(=O)n(-c2ccccc2)c1N,> 10 µM,–
CCOC(=O)c1c(N2CCOCC2)[nH]c(=O)c(C(c2c(Cl)cccc2Cl)c2c(O)c(C(=O)OCC)c(N3CCOCC3)[nH]c2=O)c1O,32.9 µM,–
Cc1cc(NC(=S)SCc2ccc(F)cc2)c([N+](=O)[O-])cc1C,> 100 µM,–
COC(=O)Nc1nc2ccc(C3(c4ccc(F)cc4)OCCO3)cc2[nH]1,> 100 µM,0.638 µM
COc1cc2c(cc1OCCCCC(=O)Nc1cc3c4ccccc4ccc3c3ccccc13)N=C[C@@H]1CCCN1C2=O,24.3 µM,4.9 µM
O=C(/C=C/c1ccc(Cl)c(Cl)c1)c1ccc2ccccc2c1,> 100 µM,–
COc1ccc2[nH]c3c4[nH]c5ccc(OC)cc5c4c4c(c3c2c1)C(=O)NC4=O,> 25 µM,> 25 µM
CC1(C)/C(=C/N=O)N(O)C(C)(C)N1O,> 100 µM,–
CCN(CC)C1CC(O[C@H]2C[C@](O)(C(=O)CO)Cc3c(O)c4c(c(O)c32)C(=O)c2c(OC)cccc2C4=O)OC(C)C1O (some centres not stated),0.258 µM,–
CC(=O)OC1C(Oc2c(C)cc3c(c2O)[C@@H](C)CC[C@@H]3[C@@H](C)CCC=C(C)C)OCC(O)C1O (some centres not stated),32.6 µM,–
CC1(C)OC(=O)N(c2ccccc2)C12C=Cc1cc([N+](=O)[O-])ccc1O2 (configuration not stated),> 100 µM,–
Cn1c([C@H](C#N)c2ncccc2[N+](=O)[O-])nc2ccccc21,> 100 µM,–
O=C(c1ccco1)N(C(=S)OCCOc1ccccc1)c1ccccc1,50.6 µM,–
CCCc1c(O)nc(Nc2nc3ccccc3[nH]2)[nH]c1=O,> 100 µM,–
CCOC(=O)C1SC(=Nc2ccc(C)c(C)c2)N=C1C (configuration not stated),> 100 µM,–
CCOC(=O)CCC(=O)C1c2cccc(O)c2C(=O)c2c(O)cc(C)cc21 (configuration not stated),1.49 µM,–
CC1=C(/C=C/Cl)CC(Cl)C(C)(Cl)C1 (configuration not stated),> 100 µM,–
C/C(=N\Nc1ccc(Cl)cn1)c1ccc2ccccc2n1,> 100 µM,3.43 µM
N#Cc1cc(-c2cc3ccccc3o2)oc1N,26.6 µM,3.81 µM
COc1cc(/C=C/c2ccc(OC)c(O)c2)cc(OC)c1,50.4 µM,–
C/C(=N/NC(N)=S)c1ccc[nH]1,> 100 µM,–
CC(=O)Nc1ccc(/C=C/c2ccc(NC(=O)Nc3ccc(/C=C/c4ccc(NC(C)=O)cc4S(=O)(=O)O)c(S(=O)(=O)O)c3)cc2S(=O)(=O)O)c(S(=O)(=O)O)c1,> 100 µM,–
Cc1[nH]c(=O)nc2[nH][nH]c(=O)c12,> 100 µM,–
